{"source": "PubChem BioAssay AID1346428", "about": "(National Center for Advancing Translational Sciences (NCATS), 2018)", "note": "Where “and” joins values, the source holds several entries; their conditions need not be identical. Equal values may be shown once. Screen size: about 48,000 compounds; about 1,200 (2.5%) were called active. About 2% were inconclusive and are not listed.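 How the source made its calls: active means activation of at least 60% and not above a set upper limit (about 1 call in 100 departs from these limits); inconclusive means activation of 40% to 60%, or above that upper limit; inactive means activation under 40%.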 This is one part of the list."}
{"molecular_target": "Probable G-protein coupled receptor 32 (Homo sapiens) (UniProt O75388)", "sequence (O75388 whole entry, looked up)": "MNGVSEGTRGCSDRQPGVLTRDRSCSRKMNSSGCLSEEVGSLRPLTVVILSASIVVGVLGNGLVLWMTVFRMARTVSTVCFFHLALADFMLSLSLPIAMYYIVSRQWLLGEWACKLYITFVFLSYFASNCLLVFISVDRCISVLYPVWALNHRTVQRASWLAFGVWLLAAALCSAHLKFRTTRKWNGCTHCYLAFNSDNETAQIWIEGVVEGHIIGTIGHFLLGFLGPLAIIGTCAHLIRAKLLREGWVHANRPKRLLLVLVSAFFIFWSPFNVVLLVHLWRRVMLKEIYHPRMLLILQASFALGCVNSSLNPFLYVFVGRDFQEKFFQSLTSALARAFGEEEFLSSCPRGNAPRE", "test": "qHTS for Agonists of Human Resolvin D1 Receptor DRV1; further: 0% is about no effect", "conditions": "CHO-K1 GPR32 beta-arrestin PathHunter luminescence, 90 min; at 76.9 µM; hits give high values; zero percent set by DMSO-only wells", "method_in_brief": "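Luminescent readout of beta-Gal complementation quantifies ligand-induced beta-arrestin association with GPR32 in CHO-K1 cells; 90 min compound incubation at 37 °C, detection 1 h at room temperature.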"}
{"smiles": "O=C(Nc1ccc(Cl)cc1)c1cnn2c1NC(c1ccccc1)=CC2c1ccccc1", "note": "(stereo unspecified)", "activation": "inactive: -17.3%"}
{"smiles": "CCc1ccc(NC(=O)CSc2nc3c([nH]c4ccccc43)c(=O)n2-c2ccc(C)cc2)cc1", "activation": "inactive: -8.67%"}
{"smiles": "Cc1ccc(CNC(=O)CCS(=O)(=O)c2cc3c4c(c2)CCN4C(=O)CC3)cc1", "activation": "inactive: 1.99%"}
{"smiles": "Cc1ccc(NC(=O)c2ccc(NC(=O)N3CCSc4ncccc43)cc2)c(Cl)c1", "activation": "inactive: 1.1%"}
{"smiles": "CCN(CC)c1cc(C)c2cc(NC(=O)c3ccc(OC)c(OC)c3)ccc2n1", "activation": "inactive: 36.2%"}
{"smiles": "O=C(Nc1ccccc1)c1cnc(N2CCCCC2)c2ccccc12", "activation": "inactive: -1.16%"}
{"smiles": "COc1ccc(-c2cc(C)no2)cc1S(=O)(=O)N1CCN(c2cccc(C)c2)C(C)C1", "note": "(stereo unspecified)", "activation": "inactive: -6.33%"}
{"smiles": "Cc1ccccc1NC(=O)NCCc1c[nH]c2ccccc12", "activation": "inactive: 25%"}
{"smiles": "COc1cccc(N2CCN(C(=O)c3cnc4c(-c5ccccc5)c(C)nn4c3C)CC2)c1", "activation": "inactive: -27.3%"}
{"smiles": "COc1ccccc1C(=O)Nc1c(C(=O)Nc2cc(Cl)ccc2C)sc2nc(C)cc(C)c12", "activation": "inactive: -4.59%"}
{"smiles": "COc1cccc(CN2C(=O)c3ccccc3Sc3ccc(C(=O)NCc4ccccc4)cc32)c1", "activation": "inactive: -19.9%"}
{"smiles": "COc1cccc2cc(C(=O)N3CCN(c4cc(C)ccc4C)CC3)c(=O)oc12", "activation": "inactive: 7.84%"}
{"smiles": "Fc1ccccc1Nc1c2c(nc3ccccc13)CCC2", "activation": "inactive: 48.5%"}
{"smiles": "Cc1nc(SCC(=O)N2CCN(c3ccccc3)CC2)[nH]c(=O)c1C", "activation": "inactive: -0.939%"}
{"smiles": "COc1ccc(-c2ccc(NS(=O)(=O)c3ccc(NC(C)=O)cc3)cc2)nn1", "activation": "inactive: -21.2%"}
{"smiles": "COc1ccc(OC)c(NC(=O)c2c(NCc3cccs3)sc3c2CCCCC3)c1", "activation": "inactive: -6.75%"}
{"smiles": "CCN(CC)c1ccc(NC(=O)c2c(C)nn(-c3ccc(F)cc3)c2-n2cccc2)c(C)c1", "activation": "inactive: 22.9%"}
{"smiles": "CCc1ccccc1NC(=O)CN(C)S(=O)(=O)c1cccc2nsnc12", "activation": "inactive: -6.13%"}
{"smiles": "CCOc1ccccc1NC(=O)CSc1c2c(nc3ccc(Cl)cc13)CCCC2", "activation": "inactive: -32.6%"}
{"smiles": "COc1ccc(S(=O)(=O)N(CC(=O)NCCSc2ccc(C)cc2)c2ccc(C)cc2)cc1", "activation": "inactive: 3.2%"}
{"smiles": "NC(=O)n1c(O)c(C(=O)c2cccs2)c2cc(Cl)ccc21", "activation": "inactive: -0.0959%"}
{"smiles": "CCc1c(-c2ccccc2)nc2ccccc2c1C(=O)NC(C)c1ccccc1", "note": "(stereo unspecified)", "activation": "inactive: -18.2%"}
{"smiles": "Cc1[nH]c2ccc(C(=O)NCCCN3CCCCC3)cc2c1C", "activation": "inactive: -15.5%"}
{"smiles": "COc1ccc(-c2noc(CNC(=O)c3cc(OC)c(OC)c(OC)c3)n2)cc1", "activation": "inactive: 6.73%"}
{"smiles": "CC1CCc2onc(C(=O)Nc3ccc(Cl)cc3)c2C1", "note": "(stereo unspecified)", "activation": "inactive: -5.11%"}
{"smiles": "Cc1nc2c(c(C)c1CCC(=O)NCc1ccc(F)cc1)c(=O)n(C)c(=O)n2C", "activation": "inactive: -9.35%"}
{"smiles": "CCCN(c1ccccc1F)S(=O)(=O)c1ccc2c(c1)C(C)(C)C(=O)N2C", "activation": "inactive: -1.75%"}
{"smiles": "CC(=O)N1CCC(N(Cc2ccc(C)o2)C(=O)Nc2ccccc2F)CC1", "activation": "inactive: 10.8%"}
{"smiles": "CCOc1ccccc1NC(=O)Cn1nnc(C(=O)NCc2cccs2)c1N", "activation": "inactive: 10.6%"}
{"smiles": "CCOC(=O)c1cc(OC(=O)c2ccccc2F)n(-c2ccccc2)n1", "activation": "inactive: 46%"}
{"smiles": "CCOc1c(Br)cc(C2C=C(C(=O)O)Nc3ncnn32)cc1OC", "note": "(stereo unspecified)", "activation": "inactive: -8.07%"}
{"smiles": "COc1ccc(NCc2cc3cc4c(cc3n(CC(=O)Nc3ccc(C)cc3C)c2=O)OCO4)cc1", "activation": "inactive: -56%"}
{"smiles": "CC(=O)N1c2ccccc2C(=O)C1N1CCN(c2ccc(Cl)cc2)CC1", "note": "(stereo unspecified)", "activation": "inactive: -32.6%"}
{"smiles": "O=C(NCc1ccccc1)c1cc(Sc2cccc(Cl)c2)nc2ccccc12", "activation": "inactive: -18.7%"}
{"smiles": "Nc1nc2c(ncn2COCCO)c(=O)[nH]1", "activation": "inactive: -5.02% and inactive: 6.29%"}
{"smiles": "Cc1ccc(-c2nc(S(=O)(=O)c3ccc(F)cc3)c(N3CCN(c4ccccc4)CC3)o2)cc1", "activation": "inactive: 4.99%"}
{"smiles": "CC(C)C[C@H](N)c1nnc(SCc2ccc(Cl)cc2Cl)o1", "activation": "active: 76.7%"}
{"smiles": "CC1=C(c2ccc(C(C)C)cc2)S(=O)(=O)N=C1N1CCN(c2ccccc2F)CC1", "activation": "inactive: -6.91%"}
{"smiles": "Cc1ccccc1Nc1nn2c(=O)c3ccc(C(=O)NCC(C)c4ccccc4)cc3nc2s1", "note": "(stereo unspecified)", "activation": "inactive: 24.1%"}
{"smiles": "CCCCN(C)CCNC(=O)c1nn(-c2ccc(OC)c(Cl)c2)c(=O)c2c1c1ccccc1n2C", "activation": "inactive: 13.1%"}
{"smiles": "Cc1nn(-c2ccccc2)c2sc(C(=O)Nc3ccc(Cl)cc3Cl)cc12", "activation": "inactive: -19.7%"}
{"smiles": "Cc1cccn2c(=O)c(C(=O)N3CCN(c4ccccc4F)CC3)cnc12", "activation": "inactive: -0.207%"}
{"smiles": "COc1ccc(C(=O)Nc2nnc(SCc3cc(=O)c4cc(C)ccc4[nH]3)s2)cc1OC", "activation": "inactive: 13.9%"}
{"smiles": "COc1ccc(CNC(=O)Cn2c(=O)c3cccn3c3cccnc32)cc1", "activation": "inactive: 4.93%"}
{"smiles": "NCCSSCCN", "activation": "inactive: -6.25%"}
{"smiles": "COC(=O)C1=C(CS(=O)(=O)c2ccc(C)cc2C)NC(=O)NC1c1ccc(C)cc1", "note": "(stereo unspecified)", "activation": "inactive: 2.26%"}
{"smiles": "COc1ccc2c(C)c(CCC(=O)NCCc3ccccc3)c(=O)oc2c1", "activation": "inactive: 49.5%"}
{"smiles": "CCN(CC)c1ccc2cc(-c3nnc(Nc4ccc(C)cc4)s3)c(=O)oc2c1", "activation": "inactive: -3.57%"}
{"smiles": "Cc1cc(C)c(S(=O)(=O)NCc2ccc3c(c2)CCN3C(=O)c2ccccc2)c(C)c1", "activation": "inactive: -12.2%"}
{"smiles": "COC(=O)c1ccc(NC(=O)c2c(NCc3cccc(F)c3)sc3c2CCCC3)cc1", "activation": "inactive: -9.9%"}
{"smiles": "Cc1cc(NC2CCCCC2)nc(-n2nc(C)cc2C)n1", "activation": "inactive: -25.6%"}
{"smiles": "Cc1cc2c(cc1S(=O)(=O)N(CCN(C)C)Cc1ccccc1)OCC(=O)N2", "activation": "inactive: -7.76%"}
{"smiles": "Cc1cccc(N2CCN(S(=O)(=O)c3cc(C(=O)Nc4ccc(Oc5ccccc5)cc4)ccc3F)CC2C)c1", "note": "(stereo unspecified)", "activation": "inactive: -5.77%"}
{"smiles": "COc1ccc(C(=O)NCCn2cc(SCC(=O)Nc3ccc4c(c3)OCCO4)c3ccccc32)cc1", "activation": "inactive: -2.26%"}
{"smiles": "CCC(Oc1ccccc1F)C(=O)Nc1cc(-c2ccccc2)no1", "note": "(stereo unspecified)", "activation": "inactive: -23.8%"}
{"smiles": "COc1ccccc1C(c1c(O)cc(C)n(Cc2ccco2)c1=O)N1CCCCC1", "note": "(stereo unspecified)", "activation": "inactive: -8.78%"}
{"smiles": "COc1ccc(Nc2cc(C)c3cc(NC(=O)c4ccccc4Cl)ccc3n2)cc1", "activation": "inactive: 20.5%"}
{"smiles": "Fc1ccc(-c2noc3ncnc(NCCc4ccc(Cl)cc4)c23)cc1", "activation": "inactive: 13.2%"}
{"smiles": "COc1cccc(N2CC(NC(=O)c3cc4ccccc4o3)CC2=O)c1", "note": "(stereo unspecified)", "activation": "inactive: -8.31%"}
{"smiles": "CC(C)c1ccc2c(c1)NC(c1ccc(F)cc1)=NC(c1cccs1)=N2", "activation": "inactive: -35.8%"}
{"smiles": "Cc1ccc(NC(=O)Nc2nnc(SCC(=O)N3CCCCC3)s2)cc1", "activation": "inactive: -7.54%"}
{"smiles": "Cc1cccc(C(=O)NCCc2nc3ccccc3n2Cc2ccccc2Cl)c1", "activation": "inactive: 2.97%"}
{"smiles": "Cc1cc(Nc2cccc(C(F)(F)F)c2)nc2ccc(NC(=O)Cc3ccc(Cl)cc3)cc12", "activation": "inactive: 19.3%"}
{"smiles": "Cc1nc2ncnn2c(C)c1CCC(=O)N1CCN(c2ccc(F)cc2)CC1", "activation": "inactive: -1.37%"}
{"smiles": "COc1cccc(CNC(=O)N2CCc3c(sc4c3CCCC4)C2c2ccc(F)cc2)c1", "note": "(stereo unspecified)", "activation": "inactive: 22.1%"}
{"smiles": "CCOc1ccccc1CNC(=O)CSc1n[nH]c(-c2ccccc2)n1", "activation": "inactive: -10.5%"}
{"smiles": "O=C(CSc1nnc(-c2ccncc2)n1-c1ccccc1)Nc1ccc(F)cc1", "activation": "inactive: 9.1%"}
{"smiles": "CCOC(=O)CCc1c(C)nc2c(-c3ccccc3)c(C)[nH]n2c1=O", "activation": "inactive: -22.5%"}
{"smiles": "COc1ccc(OC)c(C2C(C(=O)Nc3ccc(C)cc3C)=C(C)Nc3c(C(=O)Nc4ccc(F)cc4)cnn32)c1", "note": "(stereo unspecified)", "activation": "inactive: -11%"}
{"smiles": "CCn1c2c(c(=O)n3ncc(C(=O)N4CCN(c5ccccc5)CC4)c13)CN(Cc1ccc(OC)cc1)CC2", "activation": "inactive: -23.3%"}
{"smiles": "CC(C)c1noc(-c2ccccc2OCC(=O)Nc2ccc([N+](=O)[O-])cc2)n1", "activation": "inactive: -15.8%"}
{"smiles": "COc1ccc(Cl)cc1NC(=O)CSc1nc(=O)n(Cc2ccco2)c2c1CCC2", "activation": "inactive: -4.73%"}
{"smiles": "CC(C)NCC(O)c1ccc(O)c(O)c1", "note": "(stereo unspecified)", "activation": "inactive: -0.798% and inactive: -1.44%"}
{"smiles": "CCOC(=O)c1ccccc1NC(=O)c1cn(CC(C)C)c(=O)c2cc(OC)c(OC)cc12", "activation": "inactive: 1.73%"}
{"smiles": "Nc1ccc(O)cc1", "activation": "inactive: 14.6%"}
{"smiles": "COc1ccc(N2CCN(S(=O)(=O)c3ccc(C4CCCCC4)cc3)CC2)cc1", "activation": "inactive: -5.92%"}
{"smiles": "Cc1ccc(OCC(=O)Nc2nnc(S(=O)(=O)N3CCc4ccccc43)s2)cc1", "activation": "inactive: 12.7%"}
{"smiles": "COc1ccc(OC)c(-c2noc(CSc3nnc(-c4ccccc4)n3-c3ccccc3)n2)c1", "activation": "inactive: 8.51%"}
{"smiles": "Cc1ccc(-n2ncc3c(Nc4ccc(Oc5ccccc5)cc4)ncnc32)c(C)c1", "activation": "inactive: 16.8%"}
{"smiles": "CCOCCCNC(=O)c1c[nH]c2ccc(S(=O)(=O)N(C)c3ccc(Cl)cc3F)cc2c1=O", "activation": "inactive: 3.64%"}
{"smiles": "CN1CCN(C(CNC(=O)C(=O)Nc2ccc(Cl)cc2)c2cccnc2)CC1", "note": "(stereo unspecified)", "activation": "inactive: 8.09%"}
{"smiles": "Cc1ccc(C)c(N2CCN(C(=O)CCc3nnc4n(C)c(=O)c5ccccc5n34)CC2)c1", "activation": "inactive: -16.8%"}
{"smiles": "CCOC(=O)c1ccc(NC(=O)c2c(NCc3sccc3C)sc3c2CCC(C)C3)cc1", "note": "(stereo unspecified)", "activation": "inactive: 10.1%"}
{"smiles": "NC(=O)c1nc(Nc2ccccc2)sc1NC(=O)c1c(F)cccc1F", "activation": "inactive: -1.74%"}
{"smiles": "CCOC(=O)c1cccnc1SCC(=O)N(CC)c1cccc(C)c1", "activation": "inactive: -4.79%"}
{"smiles": "COc1ccc(F)cc1S(=O)(=O)NCC(c1ccco1)S(=O)(=O)c1cccs1", "note": "(stereo unspecified)", "activation": "inactive: -28.9%"}
